Measured values taken from the supplement of paper PMC12067230.
Single values of this set are uncertain.

assay: amyloid nucleation score relative to library mode (yeast Sup35 reporter selection) (log enrichment difference); higher = more amyloid nucleation; sequences are the first 22 residues of the Bri2 peptide extended by up to 12 random residues; details: random library (experiment): 1;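 active = nucleation score significantly above 0 at FDR 0.05; inactive = not significantly above 0 or absent from output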
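Also: [psi-pin-] Saccharomyces cerevisiae expressing SupN fusions, induced by 100 µM Cu2SO4, selected 7 d at 30 °C without adenine and uracil, scored by deep sequencing of output versus input.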

Sequence	amyloid nucleation score
EASNCFAIRHFENKFAVETLICMSSLGSGWPGCA	6.3
EASNCFAIRHFENKFAVETLICMSTCWWRYQASL	inactive
EASNCFAIRHFENKFAVETLICMSTVDSRSRKMG	inactive
EASNCFAIRHFENKFAVETLICMSTVWHTLFVVI	inactive
EASNCFAIRHFENKFAVETLICMSVCWQALVGVT	inactive
EASNCFAIRHFENKFAVETLICMSVERVGESAWD	inactive
EASNCFAIRHFENKFAVETLICMSVEVPVRTPPW	2.8
EASNCFAIRHFENKFAVETLICMSW	inactive
EASNCFAIRHFENKFAVETLICMSWVPSSGIAFR	5.61
EASNCFAIRHFENKFAVETLICMTASGGTGSWEG	inactive
EASNCFAIRHFENKFAVETLICMTFCFTPLTVWS	3.24
EASNCFAIRHFENKFAVETLICMTGMITIFARRG	0.664
EASNCFAIRHFENKFAVETLICMTLGWWVVPEGP	inactive
EASNCFAIRHFENKFAVETLICMTLNTFGELSER	4.4
EASNCFAIRHFENKFAVETLICMTRM	-0.826
EASNCFAIRHFENKFAVETLICMTTFLLRARGRV	inactive
EASNCFAIRHFENKFAVETLICMTTLALCACVR	inactive
EASNCFAIRHFENKFAVETLICMTVNT	inactive
EASNCFAIRHFENKFAVETLICMVACFAG	inactive
EASNCFAIRHFENKFAVETLICMVAHV	inactive
EASNCFAIRHFENKFAVETLICMVDYRSLTCLRS	inactive
EASNCFAIRHFENKFAVETLICMVEVDRKWRPRW	1.79
EASNCFAIRHFENKFAVETLICMVGW	5.86

Sequence	amyloid nucleation score
EASNCFAIRHFENKFAVETLICMVHWLLERPSAA	inactive
EASNCFAIRHFENKFAVETLICMVIREETNGLWV	inactive
EASNCFAIRHFENKFAVETLICMVKSCSMYHKLS	inactive
EASNCFAIRHFENKFAVETLICMVMTTFSLGAAR	inactive
EASNCFAIRHFENKFAVETLICMVPAVHKRGIFW	inactive
EASNCFAIRHFENKFAVETLICMVQ	1.86
EASNCFAIRHFENKFAVETLICMVRLYSVMVVGW	inactive
EASNCFAIRHFENKFAVETLICMVRWP	inactive
EASNCFAIRHFENKFAVETLICMVSASPVRFLLW	inactive
EASNCFAIRHFENKFAVETLICMVSIGCWSNLAR	inactive
EASNCFAIRHFENKFAVETLICMVSRLVKLYREE	1.75
EASNCFAIRHFENKFAVETLICMVTMTLQLSYAT	inactive
EASNCFAIRHFENKFAVETLICMVVGRMRWVCRC	-0.755
EASNCFAIRHFENKFAVETLICMVVQDSYEVD	inactive
EASNCFAIRHFENKFAVETLICMVWVLFYSFSQL	inactive
EASNCFAIRHFENKFAVETLICMWAHYSMAKSSA	inactive
EASNCFAIRHFENKFAVETLICMWFSAARVGS	0.6
EASNCFAIRHFENKFAVETLICMWGHRWQRKVKE	inactive
EASNCFAIRHFENKFAVETLICMWMSWPRPCSRA	inactive
EASNCFAIRHFENKFAVETLICMWPVGWGEQYGE	7.16
EASNCFAIRHFENKFAVETLICMWWHRSISLGLL	inactive
EASNCFAIRHFENKFAVETLICMY	1.79
EASNCFAIRHFENKFAVETLICMYAMYVWAIYQW	inactive

same assay, conditions: random library (experiment): 2

Sequence	amyloid nucleation score
EASNCFAIRHFENKFAVETLICMSSLRSF	inactive
EASNCFAIRHFENKFAVETLICMSSRCRYVLLRY	4.83
EASNCFAIRHFENKFAVETLICMSTDCACVGTMG	6.45
EASNCFAIRHFENKFAVETLICMSTRRLNIKMVL	inactive
EASNCFAIRHFENKFAVETLICMSTWGKWPGYRE	2.63
EASNCFAIRHFENKFAVETLICMSVRLCNPRTMW	4.47
EASNCFAIRHFENKFAVETLICMSVVDEVPVVTG	inactive
EASNCFAIRHFENKFAVETLICMSVWI	5.98
EASNCFAIRHFENKFAVETLICMSWYYFTAHHDI	inactive
EASNCFAIRHFENKFAVETLICMSYEKSSVYTEL	4.14
EASNCFAIRHFENKFAVETLICMSYIRNLVLKSL	-0.642
EASNCFAIRHFENKFAVETLICMSYNYSSRRYMR	4.61
EASNCFAIRHFENKFAVETLICMT	inactive
EASNCFAIRHFENKFAVETLICMTALHSFWRVRC	inactive
EASNCFAIRHFENKFAVETLICMTAVVG	1.31
EASNCFAIRHFENKFAVETLICMTAYSSF	inactive
EASNCFAIRHFENKFAVETLICMTCSRFRDKGLE	4.82
EASNCFAIRHFENKFAVETLICMTFWTKATRAYE	4.41
EASNCFAIRHFENKFAVETLICMTLLGHEVVDDG	inactive
EASNCFAIRHFENKFAVETLICMTLNSTISLLVG	0.462

Sequence	amyloid nucleation score
EASNCFAIRHFENKFAVETLICMTQHVYSFRYSE	inactive
EASNCFAIRHFENKFAVETLICMTSDRQLKNSRS	0.393
EASNCFAIRHFENKFAVETLICMTVYSYVVFTLG	inactive
EASNCFAIRHFENKFAVETLICMVCTRMKQSKWG	inactive
EASNCFAIRHFENKFAVETLICMVDKLRWFYNNM	inactive
EASNCFAIRHFENKFAVETLICMVGLMCSSCRWT	2.78
EASNCFAIRHFENKFAVETLICMVKPHWECVRVG	inactive
EASNCFAIRHFENKFAVETLICMVRSAGTIDLEV	-0.0198
EASNCFAIRHFENKFAVETLICMVSKSEDRNYMQ	3.94
EASNCFAIRHFENKFAVETLICMVVYVGFWNVGD	inactive
EASNCFAIRHFENKFAVETLICMVWAQANMWEGP	5.41
EASNCFAIRHFENKFAVETLICMW	8.05
EASNCFAIRHFENKFAVETLICMWCVWMLVCSGR	inactive
EASNCFAIRHFENKFAVETLICMWER	3.34
EASNCFAIRHFENKFAVETLICMWFSICCGNSWS	4.38
EASNCFAIRHFENKFAVETLICMWLFHWMSESVR	inactive
EASNCFAIRHFENKFAVETLICMWTSGNQYVGSE	inactive
EASNCFAIRHFENKFAVETLICMWYPRRATWN	-0.0296
EASNCFAIRHFENKFAVETLICMYARSGLLNMVR	1.31

same assay, conditions: random library (experiment): 3

Sequence	amyloid nucleation score
EASNCFAIRHFENKFAVETLICMSWLKMRGLIFT	inactive
EASNCFAIRHFENKFAVETLICMTAVGISDRT	4.7
EASNCFAIRHFENKFAVETLICMTCYVRRRRSRG	3.97
EASNCFAIRHFENKFAVETLICMTERRESSIRTV	inactive
EASNCFAIRHFENKFAVETLICMTKMRDRLSLGR	1.15
EASNCFAIRHFENKFAVETLICMTLKLMLRASVC	inactive
EASNCFAIRHFENKFAVETLICMTPAAGMWRGWL	4.78
EASNCFAIRHFENKFAVETLICMTPVQRY	inactive
EASNCFAIRHFENKFAVETLICMTTL	inactive
EASNCFAIRHFENKFAVETLICMTVGIKSEISGW	inactive
EASNCFAIRHFENKFAVETLICMVAIYVGAMRG	inactive
EASNCFAIRHFENKFAVETLICMVCVDMYVVPNR	inactive
EASNCFAIRHFENKFAVETLICMVG	inactive
EASNCFAIRHFENKFAVETLICMVGS	inactive
EASNCFAIRHFENKFAVETLICMVKDGTYGEGAY	inactive
EASNCFAIRHFENKFAVETLICMVLGPAGGWEHR	5.48
EASNCFAIRHFENKFAVETLICMVLPAWRLWS	5.29

Sequence	amyloid nucleation score
EASNCFAIRHFENKFAVETLICMVMKTWSKMDRS	inactive
EASNCFAIRHFENKFAVETLICMVMQGSSSTFHM	8.38
EASNCFAIRHFENKFAVETLICMVNLRESYVLVP	inactive
EASNCFAIRHFENKFAVETLICMVPE	inactive
EASNCFAIRHFENKFAVETLICMVPRSWTAWGRF	-0.0267
EASNCFAIRHFENKFAVETLICMVQFSVDGLSWR	inactive
EASNCFAIRHFENKFAVETLICMVRASRWAARWD	-0.142
EASNCFAIRHFENKFAVETLICMVRTSY	0.765
EASNCFAIRHFENKFAVETLICMVSMPNCKVRLR	inactive
EASNCFAIRHFENKFAVETLICMVV	inactive
EASNCFAIRHFENKFAVETLICMVYYMQVSLAEW	inactive
EASNCFAIRHFENKFAVETLICMWIRYSL	0.433
EASNCFAIRHFENKFAVETLICMWLARIWLRQAG	inactive
EASNCFAIRHFENKFAVETLICMWRACGEEPAIW	inactive
EASNCFAIRHFENKFAVETLICMWWALMAGRCWT	inactive
EASNCFAIRHFENKFAVETLICMWWWPIVKSGRC	inactive
EASNCFAIRHFENKFAVETLICMYCLRHLSHTAQ	inactive
